According to PubChem BioAssay AID1159614 (National Center for Advancing Translational Sciences (NCATS), 2016):
Hit rate of the full screen: of about 45,000 compounds, about 65 (0.1%) were called active. Calls come from the whole dose curve; as a rule, active = well fitted activation curve with a large enough effect; inconclusive = small, poorly fitted or top-dose-only effect; inactive = no such curve, though single readings can be large or run the other way. The list shows a part of the results.

target: Galactocerebrosidase (Homo sapiens) (UniProt P54803); test: A Novel Cell-Based Assay to Identify Small Molecules for B -Galactocerebrosidase; conditions: 145M-Twi-hGALC-G270D cells (Twitcher mouse brain line with human GALC G270D), HMU-beta-Gal fluorescence, 48 h; series mostly up to 57.5 µM; activation: at the top concentration; note: 0% is about no effect; nearly all actives have a fitted effect of over 65% in size
Procedure, shortened: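 Brain-derived Twitcher mouse 145M-Twi cells stably expressing human GALC-G270D or wild-type GALC, treated live, then residual GALC activity read by fluorescence of HMU-b-Gal substrate (0.1 mM final) in citrate-phosphate buffer pH 5.2 with sodium taurocholate. Signal increase indicates enhancement.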

Sequence of UniProt P54803 (P54803 whole entry, looked up): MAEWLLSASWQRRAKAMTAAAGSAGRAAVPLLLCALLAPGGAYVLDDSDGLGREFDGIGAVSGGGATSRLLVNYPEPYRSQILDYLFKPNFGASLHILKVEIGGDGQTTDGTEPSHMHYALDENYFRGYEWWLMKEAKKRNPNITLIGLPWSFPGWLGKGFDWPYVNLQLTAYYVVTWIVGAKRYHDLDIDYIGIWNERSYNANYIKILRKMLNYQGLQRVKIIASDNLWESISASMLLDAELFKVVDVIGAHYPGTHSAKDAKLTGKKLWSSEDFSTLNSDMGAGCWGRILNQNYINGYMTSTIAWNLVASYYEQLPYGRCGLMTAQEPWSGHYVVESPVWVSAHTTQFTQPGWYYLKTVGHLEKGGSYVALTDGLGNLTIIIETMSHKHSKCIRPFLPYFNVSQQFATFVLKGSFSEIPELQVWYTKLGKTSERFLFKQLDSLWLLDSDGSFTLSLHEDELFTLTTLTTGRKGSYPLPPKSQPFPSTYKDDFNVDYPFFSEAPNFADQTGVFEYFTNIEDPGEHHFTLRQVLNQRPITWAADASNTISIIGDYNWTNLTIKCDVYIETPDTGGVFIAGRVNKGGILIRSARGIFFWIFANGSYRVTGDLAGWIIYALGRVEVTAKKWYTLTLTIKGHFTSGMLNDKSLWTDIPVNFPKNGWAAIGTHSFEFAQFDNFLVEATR

activation, inactive:
Cc1ccc(-n2nc(C(=O)N(C)c3ccccc3Cl)c3c4ccccc4n(C)c3c2=O)cc1 -24.3%
COc1cc2[nH]c(=O)n(CCCC(=O)N(C)Cc3ccccc3)c(=O)c2cc1OC -18.6%
CCc1ccccc1NC(=O)Cn1nc(C)c2nn(-c3ccc(Cl)cc3)c(C)c2c1=O -12.2%
CCOC(=O)c1ccc(N2C(=O)c3n[nH]c(C)c3C2c2ccc(CC)cc2)cc1 (configuration not stated) -5.06%
CCOCCCNC(=O)CN1C(=O)CCn2nc(-c3cccn3C)cc21 -23%
COc1ccc(CN(CCN(C)C)c2ncccn2)cc1 -17.8%
COc1ccc(NC(=O)CN2C(=O)C(c3ccccc3)=NC23CCC(C)CC3)cc1Cl (configuration not stated) -11.7%
CN(C)S(=O)(=O)N(CC(=O)NCCSCc1ccc(Cl)cc1Cl)c1ccccc1 -6.15%
CCOC(=O)C(Cc1ccccc1)NC(=O)Cn1nnc(-c2ccc(C)cc2)n1 (configuration not stated) -9.48%
CSc1ccc(CCNC(=O)C2CCCN(S(=O)(=O)N(C)c3ccc(F)cc3)C2)cc1 (configuration not stated) -21%
COc1ccc(C(C)C)cc1S(=O)(=O)NCCc1c(C)[nH]c2c(Cl)cccc12 -36.2%
C[C@H](NC(=O)OC(C)(C)C)c1nnc(SCc2ccc(Cl)cc2Cl)o1 -10.5%
Cc1cccn2c(=O)cc(COc3cccc(NC(=O)Nc4cccc(Cl)c4)c3)nc12 15.3%
CC(C)c1ccc(NC(=O)c2cc(S(=O)(=O)NCCc3ccccc3)ccc2F)cc1 -3.6%
COc1ccc(-n2ccnc(NCCc3ccc(S(N)(=O)=O)cc3)c2=O)cc1Cl -3.47%
O=C1Cc2cc(S(=O)(=O)Nc3cccc(C(F)(F)F)c3)cc3c2N1CCC3 -21.5%
Cc1cc(OC(C)C(=O)N(Cc2ccco2)Cc2ccco2)cc(C)c1Cl (configuration not stated) -1.18%
CC(C)c1ccc(NC(=O)[C@H]2O[C@@H]3OC(C)(C)O[C@@H]3[C@H]3OC(C)(C)O[C@H]32)cc1 -10.3%
CCN(CC)c1ccc2nc3c(=O)n(C)c(=O)n(C)c3nc2c1 -17.3%
Cc1nn(CC(=O)N2CCN(c3ccccc3F)CC2)c(=O)c2cccn12 -10.8%
CCOc1ccc(-c2nnc(SCC(=O)NC3CCCCC3)nc2-c2ccc(OCC)c(OC)c2)cc1OC -21.4%
CCc1ccc2occ(CC(=O)Nc3nnc(SC)s3)c2c1 -13.9%
COc1ccc(CNC(=O)CCn2c(=O)c3cccn3c3ccc(F)cc32)cc1OC -10.4%
CCN1C(=O)c2ccccc2S(=O)(=O)c2ccc(C(=O)NCc3ccc(C)cc3)cc21 -7.97%
CC(C)c1ccc(NC(=O)C2CCC(CNS(=O)(=O)c3ccc4c(c3)CCCC(=O)N4)CC2)cc1 (configuration not stated) -0.185%
CCn1nc(C)c(CCN(C)C(=O)Nc2cc(Cl)c(OC)cc2OC)c1C -12.5%
CCN(Cc1ccccc1)C(=O)Cn1c(=O)cc(C)c2c(C)nn(-c3cccc(F)c3)c21 -6.45%
CC(C)c1nn2c(=O)cc(COC(=O)c3cccc(NC(=O)CCc4ccccc4)c3)nc2s1 -6.25%
O=C(CSc1oc(-c2ccc(F)cc2)nc1S(=O)(=O)c1ccccc1)c1ccc(Cl)cc1 -12.6%
CCc1ccc2nc(N(Cc3cccnc3)C(=O)Cc3ccccc3)sc2c1 -25.9%
COc1ccc(Cc2c(C)nn(-c3nc(C)c(C(=O)Nc4cccc(C(C)=O)c4)s3)c2C)cc1 -8.67%
COc1ccc(-c2ccc(=O)n(CC(=O)Nc3ccc(Br)cc3F)n2)cc1 -6%
CCOC(=O)c1[nH]c(C)c(CCC(=O)N2CCN(c3ccc(Cl)cc3)CC2)c1C -9.52%
CCS(=O)(=O)c1nc(S(=O)(=O)c2ccc(Cl)cc2)c(NCc2ccc(Cl)cc2)s1 -8.8%
O=C(O)c1ccc(Nc2ncnc3scc(-c4ccccc4)c23)cc1 8.77%
Cn1c(=O)c2c(-c3ccccc3)n(-c3cccc(C#N)c3)cc2n(C)c1=O -17.4%
COC(=O)c1cc(OC)c(OC)cc1NC(=O)c1ccc2c(c1)CCN2S(C)(=O)=O -24.6%
Cc1ccc2c(c1)N(C(=O)c1ccc(F)cc1)C(C)(C)CC2(C)c1ccccc1 (configuration not stated) -11.8%
O=C(NCc1ccccc1)c1c2c(nc3ccccc13)C(=O)N(C1CCCCC1)C2 -9.28%
CCc1ccccc1N1C(=O)N(Cc2cc(=O)n3ccccc3n2)c2ccccc2S1(=O)=O -14.7%
Cc1cc2c(OCC(CNC(C)(C)C)OC(=O)c3ccccc3)cccc2[nH]1 (configuration not stated) -12.5%
CCC(C(=O)NCc1ccccc1Cl)n1c(=O)c2cccn2c2ccccc21 (configuration not stated) -4.49%
Cc1cc2oc(C(=O)Nc3sc4c(c3C(=O)NCC3CCCO3)CCCC4)cc(=O)c2cc1C (configuration not stated) -8.44%
COC(=O)c1ccc2c(c1)N(CC(=O)Nc1ccc(C)c(C)c1)C(=O)c1ccccc1S2 -16.7%
CCS(=O)(=O)N1CCc2cc(C(=O)Nc3cc(C)cc(C)c3)ccc21 -26.2%
Cc1ccc(C)c(N2CCN(C(=O)NCc3noc4ccccc34)CC2)c1 -9.6%
COc1ccc(CCNC(=O)c2ccc3[nH]c(C)c(C)c3c2)cc1OC -17.8%
O=S(=O)(NCC(c1ccco1)N1CCN(c2ccc(F)cc2)CC1)c1cc(F)ccc1F (configuration not stated) 5.54%
CCCCN(CC)CCNC(=O)CN1C(=O)COc2ccc(S(=O)(=O)N3CCOCC3)cc21 -4.11%
COc1ccc(OC)c(CCNc2nc3cc(OC)c(OC)cc3c3nc(-c4cccnc4)nn23)c1 3.46%
Cn1c(=O)c2c(-c3ccc(Cl)cc3)ccnc2n(C)c1=O -8.96%
Cc1ccc(C(=O)c2cn(Cc3ccccc3)c3c(F)cc(F)cc3c2=O)cc1 -10.9%
O=C(Nc1ccccc1)c1ccc(Cl)c(S(=O)(=O)Nc2ccccc2)c1 -1.75%
CCS(=O)(=O)N1CCC2(CC1)OC(=O)C(C)=C2C(=O)NCc1ccc(OC)c(OC)c1 -7.63%
CCOc1ccccc1CNC(=O)CN1C(=O)c2cccnc2Oc2ccc(Cl)cc21 -5.04%
COc1ccc(S(=O)(=O)N2CCCCC2)cc1C(=O)NC1CCS(=O)(=O)C1 (configuration not stated) -11.6%
Cn1c(=O)c(=O)n(C)c2cc(N3CCCC3)c(NC(=O)c3ccccc3Cl)cc21 -12.1%
COc1ccc2nc(N(Cc3cccnc3)C(=O)c3ccc(Cl)cc3)sc2c1 -9.74%
COc1ccc(N2CCN(C(=O)c3cn(C)c4ccc(S(=O)(=O)N5CCOCC5)cc4c3=O)CC2)cc1 -16.2%
CCC1Oc2ccccc2N(CC(=O)NCc2ccccc2)C1=O (configuration not stated) -10.1%
Cc1cc(Nc2cccc(Cl)c2)nc2ccc(NC(=O)Cc3c(F)cccc3Cl)cc12 -7.06%
COc1ccc(-c2noc(CC(=O)N(C)c3cc(Cl)c(OC)cc3OC)n2)cc1 -11.8%
CCCCN(C)C(=O)c1ccc2c(c1)NC(=O)C(CC(C)C)N2 (configuration not stated) -0.258%
COc1ccc(OC)c(NC(=O)N2CCC3(CC2)Oc2ccccc2C(=O)N3Cc2ccccc2F)c1 -9.26%
CCN1C(=O)C2(c3ccccc31)c1c(oc3ccccc3c1=O)C(=O)N2CCOC (configuration not stated) -12.9%
CCOc1ccccc1CNC(=O)CN1C(=O)c2cccnc2Oc2ccc(C)cc21 -26.8%
O=C(Nc1ccc(Br)cc1)c1cc(S(=O)(=O)N2CCc3ccccc32)ccc1F -33.7%
CCn1c(=O)c2sccc2n2c(CCCC(=O)Nc3ccc(Oc4ccccc4)cc3)nnc12 -6.06%
NCC(=O)CCC(=O)O -15.4%
Cc1ccc(S(=O)(=O)c2nnn3c2nc(NC2CCCCC2)c2sccc23)cc1C -16%
CN(Cc1ccccc1)c1nc2c(S(=O)(=O)c3ccccc3)nnn2c2ccsc12 -15.9%
Cc1ccc(OCCSc2nc3ccccc3n2CCC(=O)O)cc1 10.3%
Cc1ccc(-c2nc(-c3cccs3)c(-c3cccs3)[nH]2)cc1 -8.88%
Cc1cc(C)cc(OCC(=O)N(Cc2ccco2)Cc2ccccc2Cl)c1 -10.2%
Cc1c(C(=O)Nc2ccccc2F)sc2nc3n(c(=O)c12)CCC3 -20.7%
Cc1ccc(NC(=O)c2nc(S(C)(=O)=O)ncc2N(Cc2ccco2)Cc2ccco2)cc1 -8.85%
CCCCN(CC)CCCNC(=O)c1nn(-c2ccc(OC)cc2)c(=O)c2c1c1ccccc1n2C 1.43%
CNC(=O)C1CCC(Cn2c(=O)c3sccc3n(CC(=O)Nc3ccccc3)c2=O)CC1 (configuration not stated) -4.75%
O=C(Nc1ncc(Cc2ccccc2Cl)s1)c1ccc2c(c1)CC(c1ccccc1)OC2=O (configuration not stated) -6.13%
Cc1ccc(NC(=O)Cn2c(=O)n(CC(=O)NCCc3ccccc3)c(=O)c3ccccc32)cc1 -5.74%
CC1CCc2nc3ncn(Cc4cccc(F)c4)c(=O)c3cc2C1 (configuration not stated) -10.1%
COc1ccc(C)cc1-n1c(SCC(=O)NCc2ccco2)nc2c([nH]c3ccccc32)c1=O 2.67%
COc1ccc(CNC(=O)CCc2c(C)nc3c4cccnc4nn3c2C)cc1 -21.9%
CCc1ccccc1NC(=O)Cn1nnc(C(=O)NCc2cccc(OC)c2)c1N -8.73%
COc1ccc(CC(=O)Nc2nnc3n2CCS3)cc1OC 14.6%
COCCNC(=O)c1cc(-c2cccc(Cl)c2)on1 -15%
Cc1ccc(CCNC(=O)CCCn2c(=O)c3cccn3c3ccc(F)cc32)cc1 -1.71%
CCCCN(CC)CCCNC(=O)c1sc2nc3n(c(=O)c2c1C)CCCCC3 -13.8%
COc1ccc(-n2c(CCC(=O)O)ccc2-c2ccccc2)cc1 -1.92%
CCC(=O)N1CCc2cc(Br)cc(S(=O)(=O)N3CCCC(C(=O)Nc4ccc(CC)cc4)C3)c21 (configuration not stated) 1.13%
CCOC(=O)c1cccc(NC(=O)Cc2ccc(NC(=O)N3CCCCc4ccccc43)cc2)c1 -9.32%
CC(=O)c1cccc(NC(=O)Cn2cnc3c2c(=O)n(C)c(=O)n3C)c1 -19.6%
COc1ccccc1Cn1c(CNS(=O)(=O)c2ccc(Cl)s2)nc2cccnc21 -4.81%
CCOc1ccccc1CNS(=O)(=O)c1cnc(N)nc1 -3.06%
COC(=O)CCc1ccc(OCC(O)CNC(C)C)cc1 (configuration not stated) -5.59%
CCOC(=O)c1[nH]c(C)c(CCC(=O)N2CCN(c3cc(Cl)ccc3C)CC2)c1C -10.4%
O=C(Nc1ccccc1C(=O)OCc1cc(=O)n2c3c(sc2n1)CCCC3)c1ccc(Cl)cc1 -9.25%
